# Test results taken from PubChem BioAssay AID651820 (National Center for Advancing Translational Sciences (NCATS), 2012).
# The whole screen tested about 340,000 compounds, of which about 12,000 (3.5%) were called active. Inconclusive results, whose numbers are uncertain, are shown with a selection of clear calls. Calls follow the shape of the dose curve; as a rule, active = well fitted inhibition curve with a large enough effect; inconclusive = small, poorly fitted or top-dose-only effect, or another doubt; inactive = no such curve, though single readings can be large or run the other way. Potencies of inconclusive entries are left out as doubtful fits.
# Assay: qHTS Assay for Inhibitors of Hepatitis C Virus (HCV)
# Settings: Huh7.5.1 HCVcc-Cre (HCVcc is cell-culture hepatitis C virus) infection, luciferase reporter, 44 h; series mostly up to 41.8 µM
# How it was run: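 Whole-lifecycle infectious HCVcc-Cre system; cells 1,000/well, compound then virus (~0.5 moi) added 4 h after plating, 44 h culture. Luciferase read 15 sec following 15 min substrate incubation, room temp.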
# Potency is read from the fitted curve at half-maximal effect; tags tell the direction and shape of the fitted curve.
row,Compound,Potency
1,COC(=O)c1cc(NC(=O)C2CC=CCC2C(=O)O)cc(C(=O)OC)c1 (stereo not drawn),"inconclusive [inhibitor, single point]"
2,N#Cc1cn(CCCOc2ccccc2)c2ccccc12,"inconclusive [inhibitor, partial curve]"
3,NC(=S)N/N=C/c1ccc(-c2ccc(SC(F)F)cc2)o1,"inconclusive [inhibitor, single point]"
4,O=c1cc(-c2ccccc2)oc2ccc(Br)cc12,inactive
5,Cc1cc(Oc2ccc(Cl)cc2)nc(-c2ccccn2)n1,"inconclusive [inhibitor, single point]"
6,CCOC(=O)Cn1cc(/C=C/[N+](=O)[O-])c2ccccc21,"inconclusive [inhibitor, single point]"
7,COC(=O)CNC(=O)C(NC(=O)OCc1ccccc1)C(C)C (stereo not drawn),inactive
8,O=C(/C=C/c1cccs1)NC(=S)NNC(=O)c1ccccc1O,active: 22.4 µM
9,Nc1nc2ccccc2cc1S(=O)(=O)c1ccccc1,"inconclusive [inhibitor, single point]"
10,CCN(CC)C(=O)[C@H]1C[C@H](CC(=O)NCCCn2ccnc2)C(=O)N2CCc3c([nH]c4cc(CCC(=O)N(C)C)ccc34)[C@]12C,inactive
11,COC(=O)c1ccc(C(=O)N2CCCC(CNC(=O)c3ccc(F)cc3)C2)cc1 (stereo not drawn),inactive
12,Cc1cccc(C(=O)OCC(=O)NC2CC2)c1O,inactive
13,CN(Cc1nc(-c2ccccn2)no1)S(=O)(=O)c1ccccc1,"inconclusive [inhibitor, single point]"
14,O=C1CCN(CCc2ccccc2)CCN1[C@H](COc1ccccc1)Cc1ccccc1,"inconclusive [inhibitor, partial curve]"
15,CCN1C(=O)[C@@H]2[C@@H](c3ccc(-c4ccc(OC)cc4)c(OC)c3)N3CCCC[C@@]3(C(=O)OC)[C@@H]2C1=O,inactive
16,Cc1ccccc1OCC(O)CN1CCN(CCN2C(=O)c3cccc4cccc(c34)C2=O)CC1 (stereo not drawn),"inconclusive [inhibitor, partial curve]"
17,Cc1cc(C)c(NC(=O)CN(C)C(=O)C2CC(=O)N(c3cccc4ccccc34)C2)c(C)c1 (stereo not drawn),"inconclusive [inhibitor, single point]"
18,COc1cc2cc(C(N)=O)c(N)nc2cc1OC,"inconclusive [inhibitor, single point]"
19,COc1ccc(S(=O)(=O)Nc2cc3c4c(oc3c3ccccc23)CCCC4=O)cc1,"inconclusive [inhibitor, partial curve]"
20,Cc1cc(-c2ccccc2)nc2cc(C(=O)OC(C)C)nn12,"inconclusive [inhibitor, partial curve]"
21,COc1ccccc1Oc1nc(C)c(C(C)=O)cc1C#N,"inconclusive [inhibitor, single point]"
22,O=C(COC(=O)Cn1cnc2ccccc21)Nc1cc2c(cc1Cl)C(=O)c1ccccc1C2=O,"inconclusive [inhibitor, partial curve]"

row,Compound,Potency
1,Cc1cc(O)c(C(C)C)cc1NC(=O)Nc1cccc2ccccc12,"inconclusive [inhibitor, single point]"
2,Cn1c(=O)c2c(nc(NCCc3ccccc3)n2Cc2ccc(F)cc2)n(C)c1=O,"inconclusive [inhibitor, single point]"
3,CCN1CCN(c2oc(COc3ccc(-c4ccccc4)cc3)nc2C#N)CC1,"inconclusive [inhibitor, single point]"
4,CN(c1cccc(NC(=O)Nc2cccc(Cl)c2)c1)S(C)(=O)=O,"inconclusive [inhibitor, single point]"
5,Cc1cccc(C2(c3cccc(C)c3)OC(=O)c3ccccc32)c1,"inconclusive [inhibitor, single point]"
6,COc1ccc(Cl)cc1N(C)C(=O)CCc1nc(-c2ccc(C)cc2)no1,"inconclusive [inhibitor, single point]"
7,CCN(CC)S(=O)(=O)c1ccc(CNC(=O)CN2C(=O)NC3(CCc4ccccc43)C2=O)cc1 (stereo not drawn),inactive
8,Cc1ccc(C(=O)Nc2cccc3[nH]c(C(F)(F)F)nc23)cc1,"inconclusive [inhibitor, partial curve]"
9,COc1cccc(-c2cc(C(F)(F)F)n3ncc(C(=O)N4CCc5ccccc5C4)c3n2)c1,"inconclusive [inhibitor, partial curve]"
10,CCSc1nnc(NC(=O)[C@@H](NC(=O)c2ccc(C(C)(C)C)cc2)C(C)C)s1,inactive
11,Cc1c(C(C)(C)O)[nH]c2ccc(C(F)(F)F)cc12,inactive
12,COc1ccc(CN(C(=O)CSc2nnc(-c3ccccc3F)o2)c2ccc(F)cc2)cc1,"inconclusive [inhibitor, partial curve]"
13,CNC[C@@H]1Oc2c(NS(C)(=O)=O)cccc2C(=O)N([C@@H](C)CO)C[C@H]1C,inactive
14,COc1ccc(-c2cc(=O)c3c(O)c(OC)c(OC)c(OC)c3o2)cc1,"inconclusive [inhibitor, partial curve]"
15,S=C(Nc1ccccc1)N1CCCN1c1ccccc1,"inconclusive [inhibitor, single point]"
16,Cc1ccc2c(C)c(C(=O)N3CCN(c4ncccn4)CC3)oc2c1C,inactive
17,COc1ccc(-c2cc3cc(OC)c(OC)cc3cn2)cc1,"inconclusive [inhibitor, partial curve]"
18,CC1(C)CCCC(C)(C)N1CC(O)COCCOc1ccc(Br)cc1 (stereo not drawn),"inconclusive [inhibitor, single point]"
19,CCCOc1ccc(C2C(C(=O)OC)=C(C)N=C3SCCC(=O)N32)cc1OCC (stereo not drawn),"inconclusive [inhibitor, full curve]"
20,CCOC(=O)c1c(NC(=O)c2ccc(S(=O)(=O)N(C)CC3CCCO3)cc2)sc2c1CCN(C)C2 (stereo not drawn),active: 12.6 µM
21,CC1CCCCC1NC(=O)NC(=O)CCl (stereo not drawn),"inconclusive [inhibitor, single point]"
